Results from the supplement of paper PMC10600219.
Where a name gives a salt, the structure may show the parent alone. ± gives the standard deviation of the averaged measurements. Whole data set: some 2,800 compounds, median “cell viability relative to vehicle” near 0.98, cut for the lowest 2% near 0.45. The list shows a part of the results.

Tested on: NCI-H2228 alectinib-DTP
Experiment: cell viability relative to vehicle (fraction of vehicle); NCI-H2228 is an ALK-positive lung cancer line and DTP means drug-tolerant persister; higher = less growth inhibition
Conditions: 100 nM; treatment time 6 days
Outline: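 Values give cell viability as a fraction of vehicle-treated cells. Parental and drug-tolerant persister NCI-H2228 cells (persisters made with 1000 nM of a targeted drug for 13 days) were exposed in 384-well plates to the 3114-agent TargetMol anti-cancer compound library at 100 nM, with DMSO as vehicle. ATP was then read after 6 days by the CellTiter-Glo 3D Cell Viability Assay.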

Row | SMILES | cell viability
1 | Cc1c(-c2ccc(N3CCc4cccc(C(=O)Nc5nc6ccccc6s5)c4C3)nc2C(=O)O)cnn1CC12CC3CC(CC(C3)C1)C2 | 0.806
2 | Cc1cc(N2CCOCC2)ccc1Nc1nc(NC2CCCCC2)c2[nH]cnc2n1 | 1.13
3 | O=c1c(-c2ccc(O)cc2)coc2cc(O)cc(O)c12 [Genistein] | 0.922
4 | CC(C)C[C@H](NC(=O)[C@@H](O)[C@H](N)Cc1ccccc1)C(=O)O [Bestatin hydrochloride] | 1.12
5 | CC(C)C[C@H](NC(=O)[C@@H](O)[C@H](N)Cc1ccccc1)C(=O)O [Ubenimex] | 1.05
6 | C=CCc1ccc(O)c(-c2ccc(O)c(CC=C)c2)c1 [Honokiol] | 1.07
7 | CNC(=C[N+](=O)[O-])NCCSCc1ccc(CN(C)C)o1 [Ranitidine Hydrochloride] | 0.884
8 | COc1cc2c(cc1OC)-c1cc3ccc(OC)c(OC)c3c[n+]1CC2 [Palmatine] | 1.12
9 | COC(=O)[C@H]1[C@H]2C[C@@H]3c4[nH]c5cc(OC)ccc5c4CCN3C[C@H]2C[C@@H](OC(=O)c2cc(OC)c(OC)c(OC)c2)[C@@H]1OC [Reserpine] | 0.874
10 | Cc1cc(-c2nc(-c3ccc(OC(F)(F)F)cc3)no2)nn1Cc1ccnc(N2CCN(C3CC3)CC2)c1 | 0.691
11 | CC(C)(C)c1ccc(S(=O)(=O)Nc2ccc(-n3ccnc3)cc2)cc1 | 1.08
12 | Cc1ccc2c(Nc3ccc(Cl)cc3)nccc2c1Nc1ncccc1-c1ncnc2nc[nH]c12 [B-Raf inhibitor 1 dihydrochloride] | 1.1
13 | CC1=C(C(=O)Nc2cc3cn[nH]c3cc2F)C(c2ccc(Cl)cc2F)N=C(c2ccnc(Cl)c2)N1 (stereo not drawn) | 1
14 | N#CCC(C1CCCC1)n1cc(-c2ncnc3[nH]ccc23)cn1 (stereo not drawn) | 1.16
15 | Cc1cncc(CN2CCC(=C3c4ccc(Cl)cc4CCc4cccnc43)CC2)c1 [Rupatadine Fumarate] | 1.01
16 | O=c1[nH]cc(F)c(=O)[nH]1 [Fluorouracil] | 1.1
17 | O=c1ncn2nc(Sc3ccc(F)cc3F)ccc2c1-c1c(Cl)cccc1Cl [Neflamapimod] | 0.927
18 | CNC(=O)c1ccccc1Oc1nc(Nc2cc(OC)c(OC)c(OC)c2)ncc1Br | 1.08
19 | CC(C)C(=O)SCCCCCCC(=O)Nc1nc(-c2ccccc2)cs1 | 0.995
20 | CC(=O)Oc1cc(C(F)(F)F)ccc1C(=O)O [Triflusal] | 1.06
21 | CN(C)CCCNC(=O)c1ccc(-c2cc(O)c3ncccc3c2)cc1 | 0.938
22 | C[C@@H]1CC[C@@]2(NC1)O[C@H]1C[C@H]3[C@@H]4CC=C5C[C@@H](O[C@@H]6O[C@H](CO)[C@@H](O[C@@H]7O[C@@H](C)[C@H](O)[C@@H](O)[C@H]7O)[C@H](O)[C@H]6O[C@@H]6O[C@@H](C)[C@H](O)[C@@H](O)[C@H]6O)CC[C@]5(C)[C@H]4CC[C@]3(C)[C@H]1[C@@H]2C [Solamargine] | 1.06
23 | O=C(O)Cc1ccccc1Nc1c(Cl)cccc1Cl [Diclofenac sodium] | 0.87
24 | Cc1c(NC(=O)c2ccc(C(C)(C)C)cc2)cccc1-c1cn(C)c(=O)c(Nc2ccc(C(=O)N3CCOCC3)cc2)n1 | 0.894
25 | C[C@@H](c1ncncc1F)[C@](O)(Cn1cncn1)c1ccc(F)cc1F [Voriconazole] | 0.977
26 | CC1(C)OC(=O)C=C[C@]2(C)[C@H]3CC[C@@]4(C)[C@H](c5ccoc5)OC(=O)[C@H]5O[C@]54[C@]3(C)C(=O)C[C@@H]12 [Obacunone] | 0.95

Row | SMILES | cell viability
27 | Cc1cccc(-c2[nH]c(C(C)(C)C)nc2-c2ccc3nccnc3c2)n1 | 1.06
28 | COc1ccc(-c2oc3c(CC=C(C)C)c(O)cc(O)c3c(=O)c2O[C@@H]2O[C@@H](C)[C@H](O)[C@@H](O)[C@H]2O)cc1 [Baohuoside I] | 1.06
29 | CC[C@H](C)n1cc(C)c2c(C(=O)NCc3c(C)cc(C)[nH]c3=O)cc(-c3ccc(N4CCNCC4)nc3)cc21 | 1.13
30 | Nc1cccc(S(=O)(=O)N2CCCN(S(=O)(=O)c3ccc4c(c3)OCCO4)CC2)c1 | 1.05
31 | OCC1(O)COc2cc(O)ccc2-c2cc(O)c(O)cc2C1 (stereo not drawn) [Protosappanin B] | 1.06
32 | CC[C@@]1(O)C(=O)OCc2c1cc1n(c2=O)Cc2cc3cc(O)ccc3nc2-1 [10-Hydroxycamptothecin] | 0.304
33 | CC[C@@]1(O)C(=O)OCc2c1cc1n(c2=O)Cc2cc3cc(O)ccc3nc2-1 [Hydroxy Camptothecine] | 0.255
34 | CN1CCN(CCCNc2ncc(Cl)c(-c3cc4c(C(=O)NC5CC5)cccc4s3)n2)CC1 | 0.958
35 | CCCCCCCCCCCCCCCCCC(=O)O [Stearic acid] | 0.881
36 | CC(C)CCN1c2nc(Nc3cc(F)c(O)c(F)c3)ncc2N(C)C(=O)C1C (stereo not drawn) | 0.91
37 | O=C1NC(=O)/C(=C/c2ccc(-c3ccc(F)cc3O)o2)S1 | 0.967
38 | Cc1cnc(Nc2ccc(N3CCN(C)CC3)cc2)nc1Nc1cccc(S(=O)(=O)NC(C)(C)C)c1 | 0.784
39 | O=C1C(CC[S+]([O-])c2ccccc2)C(=O)N(c2ccccc2)N1c1ccccc1 (stereo not drawn) [Sulfinpyrazone] | 1.18
40 | NS(=O)(=O)c1cc2c(cc1Cl)N=C(CSCc1ccccc1)NS2(=O)=O [Benzthiazide] | 1.19
41 | CC(=O)OC/C=C(C)/C=C/C=C(C)/C=C/C1=C(C)CCCC1(C)C [Retinyl acetate] | 1.07
42 | CCCC(C)NC(=O)c1ccc(Cl)c(Cl)c1 (stereo not drawn) | 1.07
43 | Nc1ccc(S(=O)(=O)Nc2ncccn2)cc1 [Sulfadiazine] | 0.913
44 | NC(=O)c1ccc2nc(-c3ccc(Oc4ccc(Cl)cc4)cc3)[nH]c2c1 | 1.01
45 | CNC1CCC(N(Cc2cccc(-c3ccncc3)c2)C(=O)c2sc3ccccc3c2Cl)CC1 (stereo not drawn) | 1.08
46 | Oc1cc(-c2nc(-c3ccccc3)[nH]c2-c2ccncc2)ccc1Cl | 1.22
47 | CC(C)[C@H](C(=O)Nc1ccc(C(=O)NO)cc1)c1ccccc1 | 0.801
48 | C#C[C@]1(OC(C)=O)CC[C@H]2[C@@H]3CCC4=C[C@@H](OC(C)=O)CC[C@@H]4[C@H]3CC[C@@]21C [Ethynodiol diacetate] | 0.946
49 | C#C[C@]1(O)CC[C@H]2[C@@H]3CCC4=CC(=O)CC[C@@H]4[C@H]3CC[C@@]21C [Norethindrone] | 0.815
50 | O=C(NC[C@H](O)CN1CCc2ccccc2C1)c1ccnc(NC2CCC2)c1 | 0.816
51 | COc1ccc(C(=O)N2CCN(c3ccc4c(c3)CCC(=O)N4)CC2)cc1OC [Vesnarinone] | 1.02
52 | COc1cc2c(cc1O)CC[C@@H]1[C@@H]2CC[C@]2(C)[C@@H](O)CC[C@@H]12 [2-Methoxyestradiol] | 0.973

Row | SMILES | cell viability
53 | COc1cc(N2CCN(C)CC2)ccc1Nc1nccc(-c2cn(C)c3cnccc23)n1 | 0.973
54 | COC(=O)C1=C(C)NC(C)=C(C(=O)OC)C1c1ccccc1[N+](=O)[O-] [Nifedipine] | 1.02
55 | O=C(Nc1nc(-c2ccc(O)c(O)c2)c(-c2ccccc2)s1)c1ccc(O)c(O)c1 | 1.03
56 | O=c1[nH]c(=O)n([C@@H]2O[C@H](CO)[C@@H](O)[C@H]2O)cc1F [5-Fluorouridine] | 0.837
57 | CN(C)CCCN1c2ccccc2CCc2ccc(Cl)cc21 [Clomipramine hydrochloride] | 0.992
58 | O=C(O)CSc1cc(NS(=O)(=O)c2ccc(Br)cc2)c2ccccc2c1O | 0.897
59 | COC(=O)N1CCN(Cc2cccc(NC(=O)Nc3ccc(C)nc3)c2F)CC1 [Omecamtiv mecarbil] | 1.03
60 | O=C1NC(=O)/C(=C\c2ccc3nccnc3c2)S1 | 0.989
61 | Cc1cc(NC(=O)C2=C(O)c3ccccc3S(=O)(=O)N2C)no1 [Isoxicam] | 0.961
62 | Nc1ccc(O)c(C(=O)O)c1 [Mesalamine] | 1.14
63 | CCC(=O)O[C@H](CC(=O)O)C[N+](C)(C)C [Propionyl-L-carnitine hydrochloride] | 0.992
64 | O=C1c2cccc3c2[C@H](CCC3)CN1[C@@H]1CN2CCC1CC2 [Palonosetron hydrochloride] | 1.03
65 | COc1cc(/C=C/C(=O)CC(=O)/C=C/c2ccc(O)c(OC)c2)ccc1O [Curcumin] | 1.07
66 | O=C(O)CSCC(=O)NC1CCSC1=O (stereo not drawn) [Erdosteine] | 1.03
67 | COC(=O)c1ccc2c(C(=Nc3ccc(N(C)C(=O)CN4CCN(C)CC4)cc3)c3ccccc3)c(O)[nH]c2c1 [Nintedanib Ethanesulfonate Salt] | 0.899
68 | O=C1NC(=O)/C(=C/c2cccc(C(F)(F)F)c2)S1 | 0.967 ± 0.074
69 | Cc1cc(O)c2c(c1)C(=O)c1cc(O)cc(O)c1C2=O [Emodin] | 0.954
70 | Clc1ccc(Nc2nnc(Cc3ccncc3)c3ccccc23)cc1 [Vatalanib 2HCl] | 1.05
71 | Cn1cc(-c2ccc3nnc(Sc4ccc5ncccc5c4)n3n2)cn1 | 0.98
72 | C[N+](C)(C)CCO.[Cl-] [Choline chloride] | 1.06
73 | CN1CCN(C2CCN(C(=O)Nc3cc(Oc4ccc(NC(=O)C5(C(=O)Nc6ccc(F)cc6)CC5)c(F)c4)ccn3)CC2)CC1 [Golvatinib] | 1.12
74 | C/C=C1\[C@H]2C=C(C)C[C@]1(N)c1ccc(=O)[nH]c1C2 [(-)-Huperzine A] | 0.98
75 | CC(C)=CCOc1c2ccoc2cc2oc(=O)ccc12 [Isoimperatorin] | 0.933
76 | COc1cc(/C=C/C(=O)NCCn2c(C(F)(F)F)cc3ccccc32)cc(OC)c1OC | 0.985
77 | CN1CCC(OC(c2ccccc2)c2ccccc2)CC1 [Diphenylpyraline hydrochloride] | 1.13
78 | CC(C)=CCC[C@](C)(O[C@@H]1O[C@H](CO[C@@H]2O[C@H](CO)[C@@H](O)[C@H](O)[C@H]2O)[C@@H](O)[C@H](O)[C@H]1O)[C@H]1CC[C@]2(C)[C@@H]1[C@H](O)C[C@@H]1[C@@]3(C)CC[C@H](O[C@@H]4O[C@H](CO)[C@@H](O)[C@H](O)[C@H]4O[C@@H]4O[C@H](CO)[C@@H](O)[C@H](O)[C@H]4O)C(C)(C)[C@@H]3CC[C@]12C [Ginsenoside Rb1] | 0.976
